Reference: paper PMC4336329 (PLoS ONE, 2015)
Hit rate of the full screen: of about 310,000 compounds, about 14,000 (4.5%) showed an effect of 50% or more. Effects have a minus sign here. The list shows a part of the results.

What follows are molecules tested against human ether-à-go-go-related gene (hERG) potassium channel (human, UniProt Q12809) (assay: primary screen, population patch clamp on CHO cells stably expressing hERG).
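Further: peak tail current of the secondary pulse compared with the same well before compound.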

Sequence of human ether-à-go-go-related gene (hERG) potassium channel (Q12809 whole entry, looked up): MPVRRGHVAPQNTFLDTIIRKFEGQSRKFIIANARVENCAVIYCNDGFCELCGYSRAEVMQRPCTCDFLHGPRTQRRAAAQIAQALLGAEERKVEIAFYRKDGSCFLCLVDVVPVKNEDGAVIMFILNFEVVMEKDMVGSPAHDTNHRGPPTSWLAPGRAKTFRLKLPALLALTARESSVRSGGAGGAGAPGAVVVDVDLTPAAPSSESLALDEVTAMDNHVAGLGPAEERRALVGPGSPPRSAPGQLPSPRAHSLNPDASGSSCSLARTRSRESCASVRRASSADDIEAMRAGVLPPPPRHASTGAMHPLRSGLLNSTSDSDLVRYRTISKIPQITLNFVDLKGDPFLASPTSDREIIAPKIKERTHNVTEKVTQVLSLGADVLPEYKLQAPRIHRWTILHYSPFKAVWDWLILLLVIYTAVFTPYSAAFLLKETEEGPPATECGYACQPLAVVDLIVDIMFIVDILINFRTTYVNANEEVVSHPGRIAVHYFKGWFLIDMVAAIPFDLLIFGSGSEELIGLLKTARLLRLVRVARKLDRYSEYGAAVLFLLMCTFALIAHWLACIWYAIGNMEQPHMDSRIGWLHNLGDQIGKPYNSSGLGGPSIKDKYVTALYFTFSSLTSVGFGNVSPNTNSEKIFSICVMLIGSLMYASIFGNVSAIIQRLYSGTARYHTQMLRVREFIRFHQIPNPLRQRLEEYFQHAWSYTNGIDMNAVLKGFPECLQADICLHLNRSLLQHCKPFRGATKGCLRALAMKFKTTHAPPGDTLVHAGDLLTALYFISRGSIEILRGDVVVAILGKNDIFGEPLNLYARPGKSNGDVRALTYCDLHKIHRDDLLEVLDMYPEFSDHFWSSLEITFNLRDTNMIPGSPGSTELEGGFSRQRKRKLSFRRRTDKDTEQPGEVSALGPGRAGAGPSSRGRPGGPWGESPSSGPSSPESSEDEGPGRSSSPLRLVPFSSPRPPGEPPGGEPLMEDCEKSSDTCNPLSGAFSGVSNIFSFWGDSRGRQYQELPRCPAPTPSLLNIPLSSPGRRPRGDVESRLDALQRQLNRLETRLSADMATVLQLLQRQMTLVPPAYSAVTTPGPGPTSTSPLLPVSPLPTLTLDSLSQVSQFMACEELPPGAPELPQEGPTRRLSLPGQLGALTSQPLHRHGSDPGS

| SMILES | hERG current change (%, negative = inhibition) at 10uM |
| --- | --- |
| CCN1C(=O)[C@H]2[C@@H](c3ccc(-c4cccc(Cl)c4)c(OC)c3)N[C@@](CC(C)C)(C(=O)OC)[C@H]2C1=O.O=C(O)C(F)(F)F | 15.2% |
| COc1ccc(N2CCN(C(=O)c3ccc(C)c(NC(=O)c4ccco4)c3)CC2)cc1 | -74.8% |
| C/C(N)=C(/C#N)C(=O)COC(=O)CCC1CCCC1 | -4.73% |
| Cc1cc(=O)[nH]c2c1cnn2C(C)c1ccccc1 (stereo not drawn) | 20.8% |
| O=C(Nc1nnc(S(=O)(=O)N2CCOCC2)s1)c1ccccc1 | 5.83% |
| Cc1cccc(C)c1OCc1cc(C(=O)N2CCN(C3CCCC3)CC2)no1 | -67.9% |
| CN1CCc2c(sc3c2C(=O)NC(c2cn(Cc4ccccc4)c4ccccc24)N3)C1 (stereo not drawn) | -19.3% |
| Cc1cc(C)n(-c2nnc(C)n2NC(=O)c2cccc(Cl)c2)n1 | 11.1% |
| COc1ccc(-c2nnnn2C(C)C)cc1 | -0.893% |
| Cn1nnnc1Sc1ncnc2scc(-c3ccc(Cl)cc3)c12 | -17.3% |
| COc1ccc(CC(=O)Nc2ccc3c(C)cc(=O)oc3c2)cc1OC | 7.85% |
| Cc1ccc(NC(=O)CSc2nnc(-c3ccncc3)n2C)cc1C | -13.9% |
| CCN(CC)C(=O)N1CCN(c2c([N+](=O)[O-])c(=O)oc3ccccc23)CC1 | -25.7% |
| Fc1ccc(N/N=C(/c2ccccc2)c2ccccn2)cc1 | -12.5% |
| COc1ccc(CC(=O)OCC(=O)NCc2ccccc2Cl)cc1 | 3.2% |
| O=C(Nc1nc(-c2ccc(Cl)cc2Cl)cs1)c1ccc(OCC2CCCO2)cc1 (stereo not drawn) | 6.82% |
| COc1ccc(CNC(=O)COC(=O)c2cc(-c3cccs3)nc3ccccc23)cc1OC | 13.7% |
| CCN1CCN(C(=O)c2ccc(CS(=O)(=O)Cc3ccccc3C)o2)CC1 | 13.3% |
| COc1cc(C(=O)NC(=S)Nc2ccc3oc(=O)ccc3c2)cc(OC)c1OC | 9.8% |
| CC(C)Cn1nc(C(=O)OCC(=O)NCC(F)(F)F)c2ccccc2c1=O | -78.2% |
| Cc1nc2c(cc1N)nc(C)n2Cc1ccccc1 | 7.23% |
| O=C(NCCCc1ccccc1)c1ccc(CS(=O)Cc2ccc(Cl)cc2)o1 (stereo not drawn) | -74.3% |
| Cc1cccc(CCNC(=O)CN(C)S(=O)(=O)c2ccc3c(c2)c(=O)n(C)c(=O)n3C)c1 | 3.86% |

| SMILES | hERG current change (%, negative = inhibition) at 10uM |
| --- | --- |
| CCN(CC)C(=O)CSc1nnc(COc2ccccc2)n1N | 5.65% |
| Cc1c(N(C)C(=O)c2ccccc2F)c(=O)n(-c2ccccc2)n1C | 6.39% |
| CCn1c(SCC(=O)NCCc2ccccc2)nnc1C(C)C | 13.8% |
| Cc1ccc(Sc2c([N+](=O)[O-])c(C)nn2C)cc1 | 11.3% |
| CN(C)S(=O)(=O)c1ccc(C(=O)OCn2nnc3ccccc3c2=O)cc1 | -37.6% |
| C=CCn1c(SCC(=O)N(C)C)nc2cc(C(=O)O)ccc2c1=O | 46.4% |
| COc1cccc(CCc2nnc(CCC(=O)NCCc3cccc(C)n3)o2)c1 | 24.7% |
| Cc1c(NC(=O)C(C)OC(=O)c2cccs2)c(=O)n(-c2ccccc2)n1C (stereo not drawn) | 3.46% |
| O=C(Nc1ccc(S(=O)(=O)N2CCCCC2)cc1)C1CC1 | 0.836% |
| O=C(CNC(=O)c1cccc(F)c1)OCC(=O)N1CCCCC1 | 4.9% |
| COC(=O)Nc1nc(C)c(C(=O)N(C)C)s1 | 6.65% |
| COc1cccc(-c2cc(C(F)(F)F)n3ncc(C(=O)N4CCc5ccccc5C4)c3n2)c1 | -21.7% |
| O=C1CSC(=S)N1c1cccnc1 | -7.65% |
| CC(NC(=O)c1ccc(Br)o1)C1CCCO1 (stereo not drawn) | 13.6% |
| COc1ccc(-c2nc(SC)n(S(=O)(=O)c3ccccc3)n2)cc1 | -1.42% |
| CCCCCCc1ccc(OCC(=O)O)cc1OCC(=O)O | 2.33% |
| Cc1ccc2nc(SCC(=O)Nc3ccc(C(N)=O)cc3)[nH]c2c1 | 3.74% |
| COc1ccc2oc(C(=O)OCC(=O)N3CCN(c4ccccc4)CC3)c(C)c2c1 | 7.88% |
| Oc1c(C=NCc2ccc(F)cc2)[nH]c2ccc(Br)c(Cl)c12 | -6.34% |
| COc1ccc(CC(=O)Nc2cc(C)ccn2)cc1OC | 16.2% |
| Cc1cccc(C(=O)NCc2nnc(SCC(=O)NC3=NCCS3)n2C)c1 | 22.8% |
| CC(Sc1nccn1C)C(=O)c1ccc(Br)cc1 (stereo not drawn) | 14% |
| CCCCN1C(=S)NC[C@@H]1Cc1ccc(O)cc1 | 7.98% |

| SMILES | hERG current change (%, negative = inhibition) at 10uM |
| --- | --- |
| S=c1nccc(-c2ccc(Cl)cc2)[nH]1 | 15.4% |
| Br.Clc1ccccc1CNCC1CCCO1 (stereo not drawn) | 0.516% |
| COC(=O)N/N=C(\C)c1cccs1 | 17% |
| C/C(Cl)=C/CSc1nn2c(=O)c3ccccc3nc2s1 | -38.4% |
| Cc1cc(C(=O)COC(=O)c2cccn2C)c(C)n1Cc1ccco1 | 21.4% |
| CC(=O)c1c(C)[nH]c(C(=O)OCC(=O)NCCC2=CCCCC2)c1C | -1.07% |
| CCc1nnc(NC(=O)CSc2nc(-c3ccccc3)cc(-c3ccc(OC)cc3)c2C#N)s1 | 16.8% |
| CCC(OC(=O)CCc1nc2ccccc2[nH]c1=O)C(=O)c1ccccc1 (stereo not drawn) | 7.92% |
| COCCNC(=O)c1cc(S(=O)(=O)N(C)c2ccccc2OC)ccc1C | 1.29% |
| CC(=O)c1ccc(NC(=O)C2CC(=O)Nc3nc4ccccc4n32)cc1 (stereo not drawn) | 14.9% |
| O=S(=O)(Nc1ccccn1)c1ccc(Cl)c2ccccc12 | 19.5% |
| COC(=O)c1ccccc1NC(=S)N1CCN(c2ccc(OC)cc2)CC1 | 5.71% |
| O=S(=O)(Nc1ccccc1)c1cccc2nonc12 | 15.1% |
| O=C(c1ccc(OC2CCN(CCc3ccccc3)CC2)cc1)N1CCC(CO)CC1 | -0.17% |
| COc1ccc(/C=N/NC(=O)Cn2nc(C)c([N+](=O)[O-])c2C)cc1 | -11.9% |
| CC(C)(C)n1nnnc1C(c1cccnc1)N1CCN(c2ccccn2)CC1 (stereo not drawn) | 21.1% |
| CC(=O)Nc1cccc(/C(C)=N/NC(=S)NC(C)C)c1 | -11.3% |
| CC1=CC(C)(C)N2C(=O)C3(NCCc4c3[nH]c3ccccc43)c3cccc1c32 (stereo not drawn) | 28.2% |
| CCc1ccc(N2C(=O)NC(=O)/C(=C/c3ccsc3)C2=O)cc1 | 5.92% |
| N#CCC(=O)Nc1ccc(C(=O)OCC(=O)c2ccc3c(c2)OCCO3)cc1 | 10.5% |
| CN1CCC(N(C)C(=O)COc2ccccc2-c2ccccc2)CC1.Cl | -25.5% |
| COc1ccnc(Oc2ccc(F)cc2)c1C(=O)N/C=N/OCc1c(Cl)cccc1Cl | -5.9% |
| COc1ccccc1-c1cc(-c2ccc(O)cc2)nc(N)c1C#N | 13.9% |

| SMILES | hERG current change (%, negative = inhibition) at 10uM |
| --- | --- |
| CCCCNC(=O)C1CC(=O)N(C2CCCCC2)C1 (stereo not drawn) | 7.23% |
| Cc1cc(/C=C2/C(=O)NN(c3ccccc3)C2=O)c(C)n1-c1ccc(O)cc1 | 10.5% |
| Cc1ccc(-n2c(N)c(-c3nc4ccccc4n3C)sc2=S)cc1 | 9.83% |
| COc1ccc(CNC(=O)OCc2nccnc2C(=O)Nc2ccc(Br)cn2)cc1 | -19% |
| Cn1c(CCCOc2ccc(Cl)cc2Cl)n[nH]c1=S | -8.86% |
| CCN(Cc1cn2cccnc2n1)C1CCCCC1 | 16.5% |
| O=c1cc(C(O)C[N+](=O)[O-])occ1OCc1ccccc1 (stereo not drawn) | -2.17% |
| Cc1ccnc(NC(=O)c2ccc([N+](=O)[O-])o2)c1 | -2.85% |
| COc1ccc(O)c(/C=N/NC(=O)c2ccc(CSc3nc(C)cc(C)n3)cc2)c1 | 6.93% |
| Cc1ccc(NCc2n[nH]c(=S)n2-c2cccc(Cl)c2)cc1 | 18.6% |
| CN1C2C=C3C(C#N)=C(N)C(C#N)(C#N)[C@@H](c4cccc(F)c4)[C@@H]3C1CC2 (stereo partly drawn) | 7.97% |
| COc1ccccc1N1CCN(CCN(C(=O)C2CCCCC2)c2ccccn2)CC1.O=C(O)/C=C\C(=O)O | -27.4% |
| CC(C)CCNC(=O)C1C2C=CC3(CN(Cc4ccccc4Cl)C(=O)C13)O2 (stereo not drawn) | -4% |
| O=C(Nc1ccnn1C1CCN(Cc2ccccc2OC(F)F)CC1)c1cccnc1 | -12.3% |
| Cc1nn(C(=O)c2cc([N+](=O)[O-])ccc2Cl)c(C)c1Br | -0.31% |
| CCCCn1c(N)c(Sc2ccc(C)cc2)c(=O)[nH]c1=O | 2% |
| CN1C(=O)C(CC(=O)Nc2ccccc2F)N(NC(=O)c2ccc(Br)cc2)C1=S (stereo not drawn) | 6.5% |
| O=C(OCC(=O)N(Cc1ccccc1)Cc1ccccc1)c1ccccc1NCCO | -15.4% |
| CCOc1cc2c(cc1OCC)-n1cccc1C(c1ccc(C(C)C)cc1)NC2.Cl (stereo not drawn) | -9.2% |
| COc1ccnc(NCc2cccnc2)c1C#N | 12.6% |
| CCOc1ccc(N2CC(C(=O)Nc3ccc(N4CCOCC4)cc3)CC2=O)cc1 (stereo not drawn) | 13.9% |
